Experimental data reported in the supplement of paper PMC8728848.
This is one part of the list.

What was measured:
Assay in all cases: glycan array binding signal (z-score within array); higher = stronger binding
Conditions in all cases: glycan notation: IUPAC condensed, linker removed
[1] = target: Fuc(a1-2)[GalNAc(a1-3)]Gal(b1-4)GlcNAc(b1-3)Gal(b1-4)GlcNAc
Outline: (§1)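 From the Consortium for Functional Glycomics database, 3228 arrays were curated, keeping only those whose protein sequence was available. Binding is given as a within-array Z-score averaged across arrays sharing a protein sequence and across linkers. Negative Z-scores can be read as non-binding.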

[2] = target: Fuc(a1-2)[GalNAc(a1-3)]Gal(b1-4)GlcNAc(b1-3)Gal(b1-4)GlcNAc(b1-3)Gal(b1-4)GlcNAc
Outline: as §1

[3] = target: Fuc(a1-2)[GalNAc(a1-3)]Gal(b1-4)[Fuc(a1-3)]GlcNAc
Outline: as §1

[4] = target: Fuc(a1-2)[GalNAc(a1-4)]Gal(b1-4)GlcNAc
Outline: as §1

[5] = target: Fuc(a1-2)[GalNAc(b1-3)]Gal
Outline: as §1

[6] = target: Fuc(a1-3)GlcNAc
Outline: as §1

[7] = target: Fuc(a1-3)[Gal(b1-4)]Glc6S
Outline: as §1

[8] = target: Fuc(a1-3)[Gal(b1-4)]GlcNAc
Outline: as §1

[9] = target: Fuc(a1-3)[Gal(b1-4)]GlcNAc(b1-2)Man(a1-3)[Fuc(a1-3)[Gal(b1-4)]GlcNAc(b1-2)Man(a1-6)]Man(b1-4)GlcNAc(b1-4)GlcNAc
Outline: as §1

[10] = target: Fuc(a1-3)[Gal(b1-4)]GlcNAc(b1-3)Gal(b1-3)[Fuc(a1-4)]GlcNAc
Outline: as §1

[11] = target: Fuc(a1-3)[Gal(b1-4)]GlcNAc(b1-3)GalNAc
Outline: as §1

[12] = target: Fuc(a1-3)[Gal(b1-4)]GlcNAc(b1-4)Gal(b1-4)[Fuc(a1-3)]GlcNAc
Outline: as §1

[13] = target: Fuc(a1-3)[Gal(b1-4)]GlcNAc(b1-4)Gal(b1-4)[Fuc(a1-3)]GlcNAc(b1-4)Gal(b1-4)[Fuc(a1-3)]GlcNAc
Outline: as §1

[14] = target: Fuc(a1-3)[Gal(b1-4)]GlcNAc(b1-6)[Gal(b1-3)GlcNAc(b1-3)]Gal(b1-4)Glc
Outline: as §1

[15] = target: Fuc(a1-3)[Gal(b1-4)]GlcNAc6S
Outline: as §1

[16] = target: Fuc(a1-3)[Gal3S(b1-4)]GlcNAc
Outline: as §1

[17] = target: Fuc(a1-3)[Gal3S(b1-4)]GlcNAc6S
Outline: as §1

[18] = target: Fuc(a1-3)[GalNAc(b1-4)]GlcNAc
Outline: as §1

[19] = target: Fuc(a1-4)GlcNAc
Outline: as §1

[20] = target: Fuc(b1-3)GlcNAc
Outline: as §1

[21] = target: Gal(a1-2)Gal
Outline: as §1

[22] = target: Gal(a1-3)Gal
Outline: as §1

[23] = target: Gal(a1-3)Gal(b1-3)GlcNAc
Outline: as §1

[24] = target: Gal(a1-3)Gal(b1-3)GlcNAc(b1-2)Man(a1-3)[Gal(a1-3)Gal(b1-3)GlcNAc(b1-2)Man(a1-6)]Man(b1-4)GlcNAc(b1-4)GlcNAc
Outline: as §1

[25] = target: Gal(a1-3)Gal(b1-3)[Fuc(a1-4)]GlcNAc(b1-2)Man(a1-3)[Gal(a1-3)Gal(b1-3)[Fuc(a1-4)]GlcNAc(b1-2)Man(a1-6)]Man(b1-4)GlcNAc(b1-4)GlcNAc
Outline: as §1

[26] = target: Gal(a1-3)Gal(b1-4)Glc
Outline: as §1

[27] = target: Gal(a1-3)Gal(b1-4)GlcNAc
Outline: as §1

[28] = target: Gal(a1-3)Gal(b1-4)GlcNAc(b1-3)GalNAc
Outline: as §1

[29] = target: Gal(a1-3)Gal(b1-4)[Fuc(a1-3)]GlcNAc
Outline: as §1

[30] = target: Gal(a1-3)Gal(b1-4)[Fuc(a1-3)]GlcNAc(b1-2)Man(a1-3)[Gal(a1-3)Gal(b1-4)[Fuc(a1-3)]GlcNAc(b1-2)Man(a1-6)]Man(b1-4)GlcNAc(b1-4)GlcNAc
Outline: as §1

[31] = target: Gal(a1-3)GalNAc
Outline: as §1

[32] = target: Gal(a1-3)[Gal(a1-4)]Gal(b1-4)GlcNAc
Outline: as §1

[33] = target: Gal(a1-4)Gal(b1-3)GlcNAc(b1-2)Man(a1-3)[Gal(a1-4)Gal(b1-3)GlcNAc(b1-2)Man(a1-6)]Man(b1-4)GlcNAc(b1-4)GlcNAc
Outline: as §1

[34] = target: Gal(a1-4)Gal(b1-4)Glc
Outline: as §1

[35] = target: Gal(a1-4)Gal(b1-4)GlcNAc
Outline: as §1

[36] = target: Gal(a1-4)Gal(b1-4)GlcNAc(b1-2)Man(a1-3)[Gal(a1-4)Gal(b1-4)GlcNAc(b1-2)Man(a1-6)]Man(b1-4)GlcNAc(b1-4)GlcNAc
Outline: as §1

[37] = target: Gal(a1-4)Gal(b1-4)GlcNAc(b1-3)Gal(b1-4)Glc
Outline: as §1

[38] = target: Gal(a1-4)GlcNAc
Outline: as §1

[39] = target: Gal(a1-6)Glc
Outline: as §1

[40] = target: Gal(b1-2)Gal
Outline: as §1

[41] = target: Gal(b1-3)Gal
Outline: as §1

[42] = target: Gal(b1-3)Gal(b1-4)GlcNAc
Outline: as §1

[43] = target: Gal(b1-3)Gal(b1-4)GlcNAc(b1-2)Man(a1-3)[Gal(b1-3)Gal(b1-4)GlcNAc(b1-2)Man(a1-6)]Man(b1-4)GlcNAc(b1-4)GlcNAc
Outline: as §1

[44] = target: Gal(b1-3)GalNAc
Outline: as §1

[45] = target: Gal(b1-3)GalNAc(a1-3)[Fuc(a1-2)]Gal(b1-4)Glc
Outline: as §1

B1: GH98CBM51-1 (Streptococcus pneumoniae) (protein)
chain: MTYLSDMDWSSATHGDIDKTKTVQKDAPFTTGNKGEHTKISLLTSDDKVKYFDKGIGTVADSPSVISYDISGQGFEKFETYIGIDQSANSSRSDHAVVDRIEIEIDGKVVYSSSVTNPEGFRYNTQAQFISVTIPQNAKKISLKSFAGEHTWGDEVVFADAKLIKTVST
**Q.** What does the source list for B1?
**A.** glycan array binding signal (z-score) [1]: 5.55; glycan array binding signal (z-score) [2]: 4.91; glycan array binding signal (z-score) [3]: 1.22; glycan array binding signal (z-score) [4]: -0.192; glycan array binding signal (z-score) [5]: -0.187; glycan array binding signal (z-score) [6]: -0.192; glycan array binding signal (z-score) [7]: -0.183; glycan array binding signal (z-score) [8]: -0.192; glycan array binding signal (z-score) [9]: -0.187; glycan array binding signal (z-score) [10]: -0.189; glycan array binding signal (z-score) [11]: -0.189; glycan array binding signal (z-score) [12]: -0.183; glycan array binding signal (z-score) [13]: -0.191; glycan array binding signal (z-score) [14]: -0.188; glycan array binding signal (z-score) [15]: -0.188; glycan array binding signal (z-score) [16]: -0.186; glycan array binding signal (z-score) [17]: -0.182; glycan array binding signal (z-score) [18]: -0.19; glycan array binding signal (z-score) [19]: -0.192; glycan array binding signal (z-score) [20]: -0.193; glycan array binding signal (z-score) [21]: -0.183; glycan array binding signal (z-score) [22]: -0.188; glycan array binding signal (z-score) [23]: -0.187; glycan array binding signal (z-score) [24]: -0.171; glycan array binding signal (z-score) [25]: -0.179; glycan array binding signal (z-score) [26]: -0.189; glycan array binding signal (z-score) [27]: -0.194; glycan array binding signal (z-score) [28]: -0.191; glycan array binding signal (z-score) [29]: -0.186; glycan array binding signal (z-score) [30]: -0.172; glycan array binding signal (z-score) [31]: -0.188; glycan array binding signal (z-score) [32]: -0.192; glycan array binding signal (z-score) [33]: -0.181; glycan array binding signal (z-score) [34]: -0.186; glycan array binding signal (z-score) [35]: -0.172; glycan array binding signal (z-score) [36]: -0.182; glycan array binding signal (z-score) [37]: -0.185; glycan array binding signal (z-score) [38]: -0.194; glycan array binding signal (z-score) [39]: -0.186; glycan array binding signal (z-score) [40]: -0.187; glycan array binding signal (z-score) [41]: -0.181; glycan array binding signal (z-score) [42]: -0.191; glycan array binding signal (z-score) [43]: -0.183; glycan array binding signal (z-score) [44]: -0.187; glycan array binding signal (z-score) [45]: -0.191
